The whole screen tested about 410,000 compounds, of which about 6,400 (1.6%) were called active. This list was built around the results that the source calls inconclusive (neither active nor inactive); the mix of calls is not that of the screen. The call rests on the fitted dose curve; in most records, active means well fitted inhibition curve with a large enough effect; inconclusive means small, poorly fitted or top-dose-only effect; inactive means no such curve, though single readings can be large or run the other way. Potencies of inconclusive entries are doubtful fits and often do not repeat.
biological target: Glucagon-like peptide 1 receptor (Homo sapiens) (UniProt P43220); assay: qHTS of GLP-1 Receptor Inverse Agonists (Inhibition Mode); conditions: HEK293 GLP-1R CRE-luciferase, luminescence, 24 h; Potency: GLP-1R form is constitutively active unless noted; activity change, negative = inhibition: at 38.3 µM (top of the series) unless noted; further: nearly all actives have a fitted effect of over 55% in size
Chain of UniProt P43220 (P43220 whole entry, looked up): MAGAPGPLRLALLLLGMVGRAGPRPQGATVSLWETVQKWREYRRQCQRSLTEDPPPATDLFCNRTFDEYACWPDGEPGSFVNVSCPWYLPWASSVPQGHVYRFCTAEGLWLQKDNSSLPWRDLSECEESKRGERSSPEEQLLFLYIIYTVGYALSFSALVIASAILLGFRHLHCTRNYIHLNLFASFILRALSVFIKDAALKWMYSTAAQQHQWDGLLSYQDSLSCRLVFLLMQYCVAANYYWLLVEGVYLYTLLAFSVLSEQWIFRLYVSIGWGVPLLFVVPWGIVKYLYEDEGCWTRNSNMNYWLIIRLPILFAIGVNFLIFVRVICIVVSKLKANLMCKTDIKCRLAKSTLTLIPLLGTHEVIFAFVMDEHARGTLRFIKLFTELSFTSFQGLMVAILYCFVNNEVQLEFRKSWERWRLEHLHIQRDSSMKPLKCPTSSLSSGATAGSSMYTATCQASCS
Summary of the method: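 Constitutively active GLP-1R drives a cAMP-responsive luciferase in stably transfected HEK293 cells; test compounds are added after overnight (12 h) attachment and left 24 hr, and signal loss in luminescence marks inhibition.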
On the % scale 0 is the no-effect control and ±100 the full control effect; potency means the concentration at half of the fitted maximal effect; tags describe the fitted curve by direction and shape.

Compound | Potency | activity change, negative = inhibition
CCN(CC)CCNCC(=O)Nc1ccc(Cl)cc1C(=O)c1ccccc1 | inconclusive: 10 µM [inhibitor, single point] | 
O=[N+]([O-])c1ccccc1CN1CC=C(c2ccc(F)cc2)CC1 | inconclusive: 28.2 µM [inhibitor, single point] | 
COc1ccc2[nH]c3c(c2c1)CCN[C@H]3C | inconclusive: 12.6 µM [inhibitor, partial curve, poor fit] | 
O=C(CSC1c2ccccc2-c2ccccc21)N/N=C/c1ccc(C(=O)O)cc1 |  | inactive: 2.99%
Cc1ncoc1C(=O)NCC1=C(c2ccc3ccccc3c2)C[C@@H]2CC[C@H]1N2Cc1ccco1 | inconclusive: 28.2 µM [inhibitor, single point] | 
CC/C(=N\N1CCCCCC1)c1c(O)n(-c2ccccc2C)c(=O)[nH]c1=O | inconclusive: 11.2 µM [inhibitor, partial curve, poor fit] | 
Cc1ccccc1CN1C(=O)C(C)N=C(c2ccccc2)c2ccccc21 (configuration not stated) | inconclusive: 10 µM [inhibitor, partial curve, poor fit] | 
O=C(NN=Cc1ccc(N(CCCl)CCCl)cc1)c1cccc([N+](=O)[O-])c1 | inconclusive: 1.58 µM [inhibitor, full curve, poor fit] | 
CN1CN(c2ccccc2)C2(CCN(CCCSc3ccccc3NC(=O)/C=C/c3ccccc3)CC2)C1=O | inconclusive: 25.1 µM [inhibitor, single point] | 
N#Cc1cc2c(nc1SCC(=O)Nc1cc(Cl)ccc1Cl)C1CCN2CC1 | inconclusive: 12.6 µM [inhibitor, single point] | 
Nc1c2c(nc3sc4c(c13)CCCC4)CCCC2 | inconclusive: 12.6 µM [inhibitor, single point] | 
Cc1ccc(-c2nc3ccc(Cl)cc3n2OC(=O)N(C)C)cc1 | inconclusive: 15.8 µM [inhibitor, partial curve, poor fit] | 
O=[N+]([O-])c1cccnc1N1CCCNCC1 | inconclusive: 28.2 µM [inhibitor, single point] | 
O=C1NC(=S)N(c2ccccc2)C(=O)/C1=C/c1ccco1 |  | inactive: -14.9%
O=C1NC(=O)N(c2ccccc2F)C(=O)/C1=C/c1ccc(Oc2ccc([N+](=O)[O-])cn2)cc1 |  | inactive: 2.54%
CCN1/C(=C/C=C/C2=[N+](CC)c3ccccc3C2(C)C)C(C)(C)c2ccccc21 | inconclusive: 0.501 µM [inhibitor, full curve, poor fit] | 
COc1ccc(NP(=O)(Nc2ccc(OC)cc2)Oc2ccccc2)cc1 | inconclusive: 7.94 µM [inhibitor, partial curve, poor fit] | 
Cc1nc2ccccc2c(=O)n1-c1ccc(-c2ccccc2)cc1 | inconclusive: 7.94 µM [inhibitor, partial curve, poor fit] | 
FC(F)(F)c1ccc(CNCCc2c[nH]c3ccccc23)cc1 | inconclusive: 12.6 µM [inhibitor, partial curve, poor fit] | 
CC(CC(C#N)(c1ccccc1)c1ccccc1)N1CCCCC1 (configuration not stated) | inconclusive: 11.2 µM [inhibitor, single point] | 
Cc1cc(N(CCCl)CCCl)ccc1C=NNC(=O)Cc1cc(=O)oc2cc(O)ccc12 |  | inactive: -22.6%

Compound | Potency | activity change, negative = inhibition
Fc1ccc(C2=CCN(C(c3cccs3)c3nnnn3CCc3ccccc3)CC2)cc1 (configuration not stated) | inconclusive: 28.2 µM [inhibitor, single point] | 
COc1ccc(/C=C/C2=CCN(C)CC2)cc1 | inconclusive: 15.8 µM [inhibitor, partial curve, poor fit] | 
O=c1[nH]c(=O)n(Cc2ccco2)c(O)c1C=NCc1cccs1 |  | inactive: 1.49%
Cn1c2ccccc2c2c(C(=O)N3CCC4(CC3)OCCO4)cn(C3CCCC3)c(=O)c21 | inconclusive: 2.24 µM [inhibitor, partial curve, poor fit] | 
Cc1ccc2cc3cc(C(=O)N4CCC5(CC4)OCCO5)oc3nc2c1 |  | inactive: -1.47%
CCN(CC)c1ccc(/C=C/[N+](=O)[O-])cc1 | inconclusive: 5.01 µM [inhibitor, full curve, poor fit] | 
COc1ccc(C(=O)CN2CCOCC2)cc1F |  | inactive: 0%
CC1CC(OP(O)(=S)c2ccc(N(C)C)cc2NC(=O)c2cccs2)CC(C)(C)C1 (configuration not stated) | inconclusive: 14.1 µM [inhibitor, single point] | 
O=c1c2ccccc2nc(/C=C/c2ccccc2)n1-c1ccc(O)cc1 | active: 5.62 µM [setting not given] | 
O=C(c1cn(Cc2ccccc2)c2ccccc12)N1CCCCC1 | inconclusive: 8.91 µM [inhibitor, partial curve, poor fit] | 
CCCCCC(=O)N[C@@H](c1ccccc1)[C@@H](O)C(=O)O[C@H]1C[C@@]2(O)[C@@H](OC(=O)c3ccccc3)C3[C@](C)(C(=O)[C@H](O)C(=C1C)C2(C)C)[C@@H](OC1OCC(O)C(O)C1O)C[C@H]1OC[C@@]31OC(C)=O (some centres not stated) | inconclusive: 3.55 µM [inhibitor, full curve] | 
Cc1ccc(-c2nc3ccccc3c(=O)n2-c2ccc(O)cc2)cc1 | inconclusive: 8.91 µM [inhibitor, single point] | 
CC1CCC(NC(=O)CN2CCN(S(=O)(=O)c3ccc(Br)s3)CC2)CC1 (configuration not stated) | active: 10 µM | 
Cc1cc2ccccc2n1-c1ccc(C(=O)N2CCC(C(=O)NCc3ccc(Cl)cc3)CC2)s1 | inconclusive: 7.08 µM [inhibitor, partial curve, poor fit] | 
COc1ccc(CNC(=O)Cn2c(SCC(=O)Nc3ccc(C)c(C)c3)nc3ccccc32)cc1 | inconclusive: 2.24 µM [inhibitor, full curve, poor fit] | 
CC1(C)C(C(=O)N2CCN(C(=O)c3ccccc3)CC2)C1(C)C | inconclusive: 10 µM [inhibitor, partial curve] | 
O=C(c1ccc2c3c(cccc13)CC2)C1CCCN(CC2CC2)C1 (configuration not stated) | inconclusive: 11.2 µM [inhibitor, partial curve, poor fit] | 
Cc1ccccc1NC(=O)NCCN1CC1 |  | inactive: 1.43%
Cc1ccc(CN2C3CCCC2CC(NC(=O)Nc2cccc(F)c2)C3)cc1 (configuration not stated) | inconclusive: 3.98 µM [inhibitor, partial curve, poor fit] | 
CCC[C@H](N[C@@H](CCC)[C@H](O)c1ccccc1)[C@H](O)c1ccccc1 | inconclusive: 12.6 µM [inhibitor, single point] | 
O=C1CN=C(c2ccccc2Cl)c2cc(Br)ccc2N1 |  | inactive: -20.6%

Compound | Potency | activity change, negative = inhibition
C=C1C(=O)OC2CC3(C)OC3CCC(C)=CC(OC(C)=O)C12 (configuration not stated) | inconclusive: 10 µM [inhibitor, partial curve, poor fit] | 
O=c1c2ccccc2nc(/C=C/c2ccco2)n1-c1ccccc1O | active: 11.2 µM [setting not given] | 
Cc1ccsc1C(=O)C1CCCN(Cc2sc(N(C)C)nc2Cl)C1 (configuration not stated) | inconclusive: 10 µM [inhibitor, partial curve, poor fit] | 
CC1(C(=O)O)CCCC2(C)c3cc(O)ccc3CCC12 (configuration not stated) | inconclusive: 14.1 µM [inhibitor, single point] | 
C=CCn1c(O)c(N=Nc2c(C)n(C)n(-c3ccccc3)c2=O)c(=O)[nH]c1=S |  | inactive: 18%
CC(=O)N1c2ccc(S(=O)(=O)NCC3CCC(C(=O)Nc4cc(C)cc(C)c4)CC3)cc2CC1C (configuration not stated) | inconclusive: 31.6 µM [inhibitor, single point] | 
Cc1[nH]c2ccccc2c1CCN |  | inactive: -16.9%
Cc1ccc(N2Cc3ccccc3C2=N)cc1[N+](=O)[O-] |  | inactive: -3.92%
C[C@@H]1CN([C@@H](C)CO)C(=O)c2c(c3ccccc3n2C)-c2ccccc2CO[C@H]1CN(C)S(=O)(=O)c1ccc(C#N)cc1 | inconclusive: 28.2 µM [inhibitor, single point] | 
CCC(=O)N1N=C(c2c(O)n(CCc3ccccc3)c(=O)[nH]c2=O)CC1c1ccc(OC)c(OC)c1 (configuration not stated) | inconclusive: 31.6 µM [inhibitor, single point] | 
CC(C)Nc1ccc(Nc2ccccc2)cc1 | inconclusive: 28.2 µM [inhibitor, single point] | 
CCNC(=O)O/N=C(\C)c1sc(-c2ccc(Cl)cc2)nc1C | inconclusive: 28.2 µM [inhibitor, single point] | 
CN1CCCN(C(=O)COc2cccc(C(F)(F)F)c2)CC1 | inconclusive: 11.2 µM [inhibitor, partial curve, poor fit] | 
CCN(CC)c1ccc(CNCCc2ccc(F)cc2)cc1 | inconclusive: 11.2 µM [inhibitor, partial curve, poor fit] | 
COC(=O)C1(C(=O)OC)C[C@H](c2ccc(OC)cc2)N(Cc2ccccc2OC)[C@@H]1c1ccccc1 | inconclusive: 10 µM [inhibitor, partial curve, poor fit] | 
Brc1ccccc1Cn1c(-c2cncs2)nc2ccccc21 | inconclusive: 28.2 µM [inhibitor, single point] | 
CCOC(=O)[C@]12Cc3cc(C)ccc3[C@H]1N(C)C(=O)c1cc(OC)ccc12 | inconclusive: 28.2 µM [inhibitor, single point] | 
CCc1cccc(NC(=O)CN2C(=O)CN=C(c3ccccc3F)c3cc(Cl)ccc32)c1 | inconclusive: 10 µM [inhibitor, partial curve, poor fit] | 
C=C1C(=O)[C@@]23C[C@H]4[C@@H]5[C@@]6(C)CCC[C@@]57[C@@H]2[C@@H](O)[C@@H]1C[C@H]3[C@H]7N4C6 | active: 8.91 µM [setting not given] | 
CC(C)CNc1c2c(nc3ccccc13)CCC2 |  | inconclusive: -71.7% [inhibitor] [at 38.3 µM, GLP-1R form is constitutively active]

Reference: PubChem BioAssay AID624417 (National Center for Advancing Translational Sciences (NCATS), 2012)
